{"source": "paper PMC11506774", "about": "(Biomolecules, 2024)", "test_system": "Echo 30/WZ16", "test": "Infectivity-based thermostability assay", "type": "cell-based", "settings": "virus co-incubated with equal volume of peptide at 62.5 µg/mL, 37 °C 15 min and 45 °C 2 min", "method": "The enterovirus (10^4–10^6 TCID50/100 µL) was incubated with an equal volume of the peptide at a final concentration of 62.5 µg/mL at 37 °C for 15 min and 43–48 °C for 2 min, followed by rapid cooling on ice. Subsequently, 46 µL of the mixture were diluted using 100 µL DMEM to achieve a continuous 0.5 Log10 dilution and added to the RD cells. After a 24-h infection, the CPE was stained using crystal violet and observed. Virus titers were determined in terms of the mean TCID50 per 100 µL by the detection of CPE on the cells. The experiment was repeated with at least two independent biological replicates for each measurement.", "data": [{"smiles": "CC[C@H](C)[C@H](NC(=O)[C@H](Cc1c[nH]cn1)NC(=O)[C@H](CCCCN)NC(=O)[C@@H]1CCCN1C(=O)[C@H](CCCCN)NC(=O)[C@H](CCSC)NC(=O)[C@H](Cc1ccc(O)cc1)NC(=O)[C@@H](NC(=O)[C@H](CCCNC(=N)N)NC(=O)[C@@H](NC(=O)[C@@H](NC(=O)[C@@H](NC(=O)[C@@H](NC(=O)[C@H](Cc1ccccc1)NC(=O)CNC(=O)[C@@H](NC(=O)[C@@H]1CCCN1C(=O)[C@H](CCC(N)=O)NC(=O)[C@@H](N)Cc1c[nH]cn1)C(C)C)[C@@H](C)O)C(C)C)[C@@H](C)O)C(C)C)C(C)C)C(=O)N[C@@H](CCCCN)C(=O)O", "note": "[Peptide P25.9]", "values": [{"measurement": "Retention of infectivity of Echo 30/WZ16 after heating", "result": "retained the infectivity"}]}]}
